This is one part of the list.

One assay concerns HSkMC. The assay is described as follows: cytotoxicity call (relative viability < 0.9). As to conditions: 10 µM.
The test system of a further assay is HepG2. The assay can be described thus: cytotoxicity call (relative viability < 0.9). As to conditions: 10 µM.
Another assay has as its system S. aureus RN4220. The assay can be described thus: growth inhibition call (relative growth <= 0.2). As to conditions: 50 µM.

Take `Cc1cc(C(=O)Nc2cccc3c2O[C@H](CN(C)S(C)(=O)=O)[C@H](C)CN([C@@H](C)CO)C3=O)n(C)n1`: the cytotoxicity call with HSkMC and in the assay on HepG2 was “inactive” each time. In the assay on S. aureus RN4220, the growth inhibition call is “inactive”.
As to `Cc1noc(C)c1NC(=O)N(C)C[C@H]1Oc2c(NC(=O)C3CCOCC3)cccc2C(=O)N([C@H](C)CO)C[C@@H]1C`, the cytotoxicity call in the assay with HSkMC and in the assay on HepG2 was “inactive” in each case. The growth inhibition call in the assay on S. aureus RN4220 was “inactive”.
Regarding `C[C@@H]1CN([C@H](C)CO)C(=O)Cc2cc(NC(=O)c3ccncc3)ccc2O[C@@H]1CN(C)Cc1ccc(-c2ccccc2)cc1`, the cytotoxicity call in the assay with HSkMC and in the assay on HepG2 was “active” each time. The growth inhibition call in the assay with S. aureus RN4220 is “inactive”.
`Cc1noc(C)c1S(=O)(=O)Nc1ccc2c(c1)C(=O)N([C@H](C)CO)C[C@H](C)[C@H](CN(C)Cc1ccc(C(=O)Nc3ccccc3N)cc1)OCCCC[C@@H](C)O2`: the cytotoxicity call in the assay on HSkMC and in the assay with HepG2 was “inactive” in each case. Also, in the assay on S. aureus RN4220, the growth inhibition call was “inactive”.
Turning to `C[C@@H]1CN([C@@H](C)CO)C(=O)c2cc(NC(=O)C3CCCCC3)ccc2O[C@@H]1CN(C)Cc1ccc(-c2ccccc2)cc1`, the cytotoxicity call with HSkMC and with HepG2 was “active” throughout. Moreover, in the assay on S. aureus RN4220, the growth inhibition call was “inactive”.
Regarding `CN(C)CCCNC(=O)C[C@@H]1CC[C@H](NS(=O)(=O)c2ccccc2)[C@H](CO)O1`, the cytotoxicity call in the assay on HSkMC and with HepG2 was “inactive” throughout. The growth inhibition call in the assay on S. aureus RN4220 is “inactive”.
Turning to `CN1CCN([C@H](CNC(=O)C(=O)NC[C@H]2CCCO2)c2ccc(N(C)C)cc2)CC1`, the cytotoxicity call in the assay with HSkMC and in the assay on HepG2 was “inactive” each time. Besides, the growth inhibition call in the assay on S. aureus RN4220 was “inactive”.
Consider `C[C@@H]1CN([C@H](C)CO)C(=O)c2cc(NC(=O)c3ccccc3)ccc2O[C@@H](C)CCCCO[C@H]1CN(C)S(=O)(=O)c1cccs1`, for which, in the assay on HSkMC, the cytotoxicity call is “inactive”. Besides, in the assay on HepG2, the cytotoxicity call was “active”. Moreover, the growth inhibition call in the assay with S. aureus RN4220 was “inactive”.
Take `C[C@@H]1CN([C@@H](C)CO)C(=O)CCCn2nncc2CO[C@@H]1CN(C)C(=O)C1CC1`: the cytotoxicity call with HSkMC and with HepG2 was “inactive” in each case. The growth inhibition call in the assay on S. aureus RN4220 was “inactive”.
`O=C(O)CC1(C(F)(F)F)OCCO1`: the cytotoxicity call in the assay with HSkMC and in the assay with HepG2 was “inactive” in each case. For the same compound, in the assay on S. aureus RN4220, the growth inhibition call is “inactive”.
In the case of `C[C@@H]1CCCCO[C@H](CN(C)S(=O)(=O)c2ccccc2)[C@@H](C)CN([C@@H](C)CO)C(=O)c2cc(NC(=O)NC3CCCCC3)ccc2O1`, the cytotoxicity call in the assay on HSkMC and in the assay on HepG2 was “inactive” in each case. The growth inhibition call with S. aureus RN4220 is “inactive”.
As to `CO[C@@H](CN(C)S(=O)(=O)c1cccc(Cl)c1)[C@H](C)CN([C@@H](C)CO)S(=O)(=O)c1cccc(Cl)c1`, the cytotoxicity call with HSkMC and in the assay with HepG2 was “inactive” throughout. The growth inhibition call with S. aureus RN4220 is “inactive”.
Consider `O=C(C[C@H]1CC[C@@H]2[C@H](COC[C@H](O)CN2C(=O)c2ccc3c(c2)OCO3)O1)NC1Cc2ccccc2C1`, for which the cytotoxicity call with HSkMC and in the assay on HepG2 was “inactive” each time. The growth inhibition call in the assay with S. aureus RN4220 is “inactive”.
As for `C[C@@H]1CN([C@H](C)CO)C(=O)c2cccc(NC(=O)c3cnccn3)c2O[C@H]1CN(C)S(C)(=O)=O`, the cytotoxicity call in the assay on HSkMC and in the assay with HepG2 was “inactive” throughout. In addition, the growth inhibition call with S. aureus RN4220 was “inactive”.
Take `C[C@@H]1CN([C@H](C)CO)C(=O)c2cc(NS(=O)(=O)c3ccccc3)ccc2O[C@@H]1CN(C)Cc1ccc(Oc2ccccc2)cc1`: the cytotoxicity call in the assay with HSkMC and in the assay on HepG2 was “active” each time. Also, the growth inhibition call with S. aureus RN4220 was “inactive”.
Take `CC(C)NC(=O)N(C)C[C@@H]1Oc2ccc(NC(=O)C3CCCCC3)cc2CC(=O)N([C@@H](C)CO)C[C@@H]1C`: the cytotoxicity call with HSkMC and in the assay with HepG2 was “inactive” each time. The growth inhibition call in the assay on S. aureus RN4220 is “inactive”.
Consider `COc1ccc(NC(=O)N(C)C[C@@H]2Oc3c(NC(=O)Nc4cccc5ccccc45)cccc3C(=O)N([C@H](C)CO)C[C@H]2C)cc1`, for which the cytotoxicity call with HSkMC and in the assay with HepG2 was “inactive” in each case. The growth inhibition call in the assay with S. aureus RN4220 was “inactive”.
Turning to `CN1CCN(C(=O)C[C@H]2C[C@@H]3c4cc(NS(=O)(=O)c5ccc(F)cc5)ccc4O[C@@H]3[C@H](CO)O2)CC1`, the cytotoxicity call in the assay on HSkMC and in the assay on HepG2 was “inactive” each time. Further, in the assay on S. aureus RN4220, the growth inhibition call was “inactive”.
For `COc1ccc2c3c(n(c2c1)C)[C@H](CO)N(CC1CCOCC1)C[C@]13CCN(CC1)C(=O)Cc1cccnc1`, the cytotoxicity call in the assay on HSkMC and in the assay on HepG2 was “inactive” in each case. Besides, in the assay with S. aureus RN4220, the growth inhibition call is “inactive”.
Take `CN1CCN(C(=O)C[C@H]2CC[C@H]3[C@@H](COC[C@@H](O)CN3S(=O)(=O)c3cccc(Cl)c3)O2)CC1`: the cytotoxicity call in the assay on HSkMC and in the assay with HepG2 was “inactive” each time. Further, the growth inhibition call in the assay on S. aureus RN4220 was “inactive”.
As for `C[C@@H]1CN([C@@H](C)CO)S(=O)(=O)c2ccc(C#Cc3ccncc3)cc2O[C@@H]1CN(C)C(=O)C1CCCCC1`, the cytotoxicity call in the assay with HSkMC is “inactive”. The cytotoxicity call with HepG2 was “active”. Besides, the growth inhibition call with S. aureus RN4220 was “inactive”.
In the case of `CCOC(=O)C1=CC2(CC)CCCN3CCc4c(n1c1ccccc41)C32` (centres undefined), the cytotoxicity call in the assay with HSkMC and in the assay on HepG2 was “inactive” each time. Moreover, the growth inhibition call in the assay with S. aureus RN4220 was “inactive”.
In the case of `C[C@@H]1CCCCO[C@H](CN(C)Cc2ccccc2)[C@H](C)CN([C@H](C)CO)C(=O)c2cc(NC(=O)Nc3cccc4ccccc34)ccc2O1`, the cytotoxicity call in the assay with HSkMC and with HepG2 was “active” in each case. Besides, the growth inhibition call with S. aureus RN4220 was “inactive”.
For the compound `O=C(C[C@@H]1CC[C@H]2[C@@H](COC[C@@H](O)CN2S(=O)(=O)c2ccccc2)O1)NCCN1CCCCC1`, the cytotoxicity call with HSkMC and with HepG2 was “inactive” each time. Further, the growth inhibition call in the assay with S. aureus RN4220 was “inactive”.
As for `CN(C)C(=O)C[n+]1ccc(/C=N/O)cc1`, the cytotoxicity call with HSkMC and in the assay with HepG2 was “inactive” throughout. The growth inhibition call in the assay on S. aureus RN4220 is “inactive”.
Take `COc1ccc(CN(C)C[C@H]2OCCCC[C@H](C)Oc3ccc(NC(=O)Nc4cccc5ccccc45)cc3C(=O)N([C@H](C)CO)C[C@@H]2C)cc1`: the cytotoxicity call in the assay on HSkMC (human skeletal muscle cells) and in the assay on HepG2 was “inactive” throughout. The growth inhibition call in the assay on S. aureus RN4220 was “inactive”.
Regarding `CC(C)CC#Cc1ccc2c(c1)O[C@H](CN(C)CC1CCOCC1)[C@@H](C)CN([C@@H](C)CO)S2(=O)=O`, the cytotoxicity call in the assay with HSkMC and with HepG2 was “inactive” in each case. Further, the growth inhibition call with S. aureus RN4220 is “inactive”.
With `C[C@H](CO)N1C[C@H](C)[C@@H](CN(C)Cc2ccc(C(F)(F)F)cc2)Oc2ccc(NC(=O)CCCCCC(=O)Nc3ccccc3N)cc2CC1=O`, the cytotoxicity call in the assay with HSkMC and in the assay with HepG2 was “inactive” in each case. For the same compound, in the assay on S. aureus RN4220, the growth inhibition call is “inactive”.
